Results from patent US5424334A, “Peptide mimetic compounds useful as platelet aggregation inhibitors” (G. D. Searle & Co., priority 1991, dated 1995).
Where a name gives a salt, the structure may show the parent alone. The name of at least one read-out is uncertain.

system: Dog PRP (platelet aggregation); assay: In-vitro platelet aggregation in PRP (ADP-induced); format: cell-based; settings: test concentration 1× 10^-4
Protocol: In-Vitro Platelet Aggregation in PRP
Healthy male or female dogs were fasted for 8 hours prior to drawing blood; then 30 ml whole blood was collected using a butterfly needle and 30 cc plastic syringe with 3 ml of 0.129M buffered sodium citrate (3.8%). The syringe was rotated carefully as blood was drawn to mix the citrate. Platelet-rich plasma (PRP) was prepared by centrifugation at 975× g for 3.17 minutes at room temperature, allowing the centrifuge to coast to a stop without braking. The PRP was removed from the blood with a plastic pipette and placed in a plastic capped, 50 ml Corning conical sterile centrifuge tube which was held at room temperature. Platelet poor plasma (PPP) was prepared by centrifuging the remaining blood at 2000× g for 15 minutes at room temperature allowing the centrifuge to coast to a stop without braking. The PRP was adjusted with PPP to a count of 2-3×10^8 platelets per ml. 400 μl of the PRP preparation and 50 μl of the compound to be tested or saline were preincubated for 1 minute at 37° C. in a BioData aggregometer (BioData, Horsham, Pa.). 50 μl of adenosine 5'diphosphate (ADP) (50 μm final concentration) was added to the cuvettes and the aggregation was monitored for 1 minute. All compounds are tested in duplicate. Results are calculated as follows:
Percent of control=[(maximal OD minus initial OD of compound) divided by (maximal OD minus initial OD of control saline)]×100. The % inhibition=100-(percent of control).
In Table A, two readings given in a single box indicate that two trials, rather than a single trial, were run for that particular compound in that particular assay.

Row | Structure (SMILES) | % Inhibition
1 | N=C(N)c1ccc(CCCCNC(=O)[C@@H](CC(=O)O)n2cccc2)cc1 [Compound 52554] | 82%
2 | N=C(N)c1ccc(CCCCNC(=O)[C@H](N)CCC(=O)O)cc1 [Compound 53085, 4R-amino-5-[[4-[4-(aminoiminomethyl)phenyl]butyl]amino]-5-oxopentanoic acid, dihydrochloride] | 97%

same assay, conditions: test concentration 1 × 10^-5

Row | Structure (SMILES) | % Inhibition
3 | N=C(N)c1ccc(CCCCNC(=O)[C@@H](CC(=O)O)NC(=O)OCc2ccccc2)cc1 [Compound 52513, 4-[[4-[4-(aminoiminomethyl)phenyl]butyl]amino]-4-oxo-3(R)-[[(Phenylmethoxy)carbonyl]amino]butanoic acid] | 100%
4 | N=C(N)c1ccc(CCCCNC(=O)[C@@H](CC(=O)O)n2cccc2)cc1 [Compound 52554] | 15%
5 | N=C(N)c1ccc(CCCCNC(=O)[C@@H](CCC(=O)O)NC(=O)OCc2ccccc2)cc1 [Compound 52809, 5-[[4-[4-(aminoiminomethyl)phenyl]butyl]amino]-5-oxo-4(R)-[[(phenylmethoxy)carbonyl]amino]pentanoic acid] | 100%
6 | N=C(N)c1ccc(CCCCNC(=O)[C@H](CCC(=O)O)NC(=O)OCc2ccccc2)cc1 [Compound 52828, 5-[[4-[4-(aminoiminomethyl)phenyl]butyl]amino]-5-oxo-4(S)-[[(phenylmethoxy)carbonyl]amino]pentanoic acid] | 77%
7 | Cc1ccc(S(=O)(=O)N[C@H](CC(=O)O)C(=O)NCCCCc2ccc(C(=N)N)cc2)cc1 [Compound 53010, 4-[[4-[4-(aminoiminomethyl)phenyl]butyl]amino]-4-oxo-3R-[[(4-methylphenyl)sulfonyl]amino]butanoic acid] | 100%
8 | CCOC(=O)CC[C@@H](NC(=O)OCc1ccccc1)C(=O)NCCCCc1ccc(C(=N)N)cc1 [Compound 53033, ethyl 5-[[4-[4-(aminoiminomethyl)phenyl]butyl]amino]-5-oxo-4R-[[(phenylmethoxy)carbonyl]amino]pentanoate, monohydrochloride] | 100%
9 | CS(=O)(=O)N[C@H](CCC(=O)O)C(=O)NCCCCc1ccc(C(=N)N)cc1 [Compound 53065, 5-[[4-[4-(aminoiminomethyl)phenyl]butyl]amino]-5-oxo-4(R)-methylsulfonylaminopentanoic acid] | 100%
10 | N=C(N)c1ccc(CCCCNC(=O)[C@H](N)CCC(=O)O)cc1 [Compound 53085, 4R-amino-5-[[4-[4-(aminoiminomethyl)phenyl]butyl]amino]-5-oxopentanoic acid, dihydrochloride] | 18%
11 | N=C(N)c1ccc(CCCCNC(=O)[C@@H](CC(=O)O)NC(=O)CCc2ccccc2)cc1 [Compound 53143, 4-[[4-[4-(aminoiminomethyl)phenyl]butyl]amino]-4-oxo-3R-[(1-oxo-3-phenylpropyl)amino]butanoic acid] | 100%
12 | N=C(N)c1ccc(C#CCCCNC(=O)[C@@H](CCC(=O)O)NC(=O)OCc2ccccc2)cc1 [Compound 53314, 5-[[5-[4-(aminoiminomethyl)phenyl]-4-pentynyl]amino]-5-oxo-4R-[[(phenylmethoxy)carbonyl]amino]pentanoic acid] | 100%
